According to article PMC4942575:
These are yes or no findings as the source states them, for the method shown. For some assays here: In cells and extracts the contact can be indirect. Some results given as binding are weak or reduced against the parent protein; the word gives no strength. For some assays here: Where a sequence is shown, tags or fusion partners need not be part of it. Blank lines part the entries; values can stand above or below the binder they belong to.

Sequences of proteins named here, by UniProt entry; tags and fusion partners are left off. A change or cut given only in a name is not applied to a line headed by its entry. A line that says so, or that is headed by a name, gives the form on record, which may keep a tag or linker. Residues count along the entry.
UniProt A0MES8: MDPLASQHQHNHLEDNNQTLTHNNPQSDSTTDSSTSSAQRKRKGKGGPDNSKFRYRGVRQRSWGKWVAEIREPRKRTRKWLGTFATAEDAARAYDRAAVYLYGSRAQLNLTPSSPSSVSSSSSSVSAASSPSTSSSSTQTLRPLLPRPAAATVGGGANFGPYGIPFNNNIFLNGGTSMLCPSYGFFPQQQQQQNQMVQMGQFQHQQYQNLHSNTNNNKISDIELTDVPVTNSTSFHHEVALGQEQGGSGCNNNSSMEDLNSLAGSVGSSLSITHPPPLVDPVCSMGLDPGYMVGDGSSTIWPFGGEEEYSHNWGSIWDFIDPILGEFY
ABI4 (amino acids 1–160) fused with the GAL4 DNA-binding domain (BD): residues 1-160 of A0MES8

Legend:
[1] = biological target: T1, 14-3-3Φ in pGBK (two-hybrid bait) (Arabidopsis), P46077; experiment: two-hybrid; 14-3-3ω or 14-3-3Φ in pGBK and MAPK pathway components in pGAD co-transformed into Y2H Gold; SD-Leu-Trp-His with 40 μg ml^-1 X-α-gal; conditions: remark: other sources report otherwise
T1 chain: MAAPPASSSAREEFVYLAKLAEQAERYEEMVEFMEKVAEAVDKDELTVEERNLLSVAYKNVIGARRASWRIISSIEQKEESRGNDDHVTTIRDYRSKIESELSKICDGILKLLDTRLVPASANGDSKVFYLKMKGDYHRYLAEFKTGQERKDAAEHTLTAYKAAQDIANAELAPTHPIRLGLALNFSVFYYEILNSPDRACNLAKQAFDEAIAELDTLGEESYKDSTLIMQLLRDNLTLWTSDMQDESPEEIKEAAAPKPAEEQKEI

[2] = biological target: ABI4 (amino acids 1–160) fused with the GAL4 DNA-binding domain (BD) (Arabidopsis) (UniProt A0MES8); experiment: two-hybrid; ABI4 (1-160)-BD and 20 MAPKs-AD co-transformed into Y2H Gold; grown on SD-Leu-Trp, α-galactosidase assay
[3] = biological target: T2, 14-3-3ω in pGBK (two-hybrid bait) (Arabidopsis) (UniProt Q01525); experiment: two-hybrid; 14-3-3ω or 14-3-3Φ in pGBK and MAPK pathway components in pGAD co-transformed into Y2H Gold; SD-Leu-Trp-His with 40 μg ml^-1 X-α-gal
T2 sequence: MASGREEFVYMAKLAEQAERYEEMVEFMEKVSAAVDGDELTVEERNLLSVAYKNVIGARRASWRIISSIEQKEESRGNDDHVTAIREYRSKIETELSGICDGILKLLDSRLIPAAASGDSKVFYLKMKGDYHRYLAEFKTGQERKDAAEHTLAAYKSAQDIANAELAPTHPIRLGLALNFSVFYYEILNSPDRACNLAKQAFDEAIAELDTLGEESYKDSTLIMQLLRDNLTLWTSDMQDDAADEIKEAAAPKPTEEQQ

ABI4-CLuc (Arabidopsis) = ABI4-CLuc (Arabidopsis) (UniProt A0MES8); experiment: split reporter; luciferase complementation imaging: ABI4-CLuc and MPK3/MPK6-NLuc co-infiltrated into N. benthamiana leaves
[4] = biological target: T3, 14-3-3ω-nYFP (Arabidopsis) (UniProt Q01525); experiment: split reporter; BiFC: 14-3-3ω-nYFP and cYFP fusions co-transformed into Arabidopsis protoplasts; confocal microscopy 12-18 h after transformation
T3 sequence: T2 sequence

[5] = biological target: T4, 14-3-3Φ in pGBK (two-hybrid bait) (Arabidopsis) (UniProt P46077); experiment: two-hybrid; 14-3-3ω or 14-3-3Φ in pGBK and MAPK pathway components in pGAD co-transformed into Y2H Gold; SD-Leu-Trp-His with 40 μg ml^-1 X-α-gal
T4 sequence: T1 chain

- binding [1]: no binding
B1: MPK6 fused with the GAL4 activation domain (AD), Q39026 1-395 (enzyme)
chain: MDGGSGQPAADTEMTEAPGGFPAAAPSPQMPGIENIPATLSHGGRFIQYNIFGNIFEVTAKYKPPIMPIGKGAYGIVCSAMNSETNESVAIKKIANAFDNKIDAKRTLREIKLLRHMDHENIVAIRDIIPPPLRNAFNDVYIAYELMDTDLHQIIRSNQALSEEHCQYFLYQILRGLKYIHSANVLHRDLKPSNLLLNANCDLKICDFGLARVTSESDFMTEYVVTRWYRAPELLLNSSDYTAAIDVWSVGCIFMELMDRKPLFPGRDHVHQLRLLMELIGTPSEEELEFLNENAKRYIRQLPPYPRQSITDKFPTVHPLAIDLIEKMLTFDPRRRITVLDALAHPYLNSLHDISDEPECTIPFNFDFENHALSEEQMKELIYREALAFNPEYQQ

- binding [2]: binds
- binding [3]: binds
B2: MPK3 fused with the GAL4 activation domain (AD) (enzyme, UniProt Q39023 1-370)
chain: MNTGGGQYTDFPAVETHGGQFISYDIFGSLFEITSKYRPPIIPIGRGAYGIVCSVLDTETNELVAMKKIANAFDNHMDAKRTLREIKLLRHLDHENIIAIRDVVPPPLRRQFSDVYISTELMDTDLHQIIRSNQSLSEEHCQYFLYQLLRGLKYIHSANIIHRDLKPSNLLLNANCDLKICDFGLARPTSENDFMTEYVVTRWYRAPELLLNSSDYTAAIDVWSVGCIFMELMNRKPLFPGKDHVHQMRLLTELLGTPTESDLGFTHNEDAKRYIRQLPNFPRQPLAKLFSHVNPMAIDLVDRMLTFDPNRRITVEQALNHQYLAKLHDPNDEPICQKPFSFEFEQQPLDEEQIKEMIYQEAIALNPTYG

- binding (ABI4-CLuc (Arabidopsis)): binds
B3: MPK3-NLuc (enzyme, UniProt Q39023 1-370)
chain: B2 chain

- binding [1]: no binding
B4: MPK3 fused with the GAL4 activation domain (AD), Q39023 1-370 (enzyme)
chain: B2 chain

- binding [4]: binds
B5: MPK3-cYFP (enzyme, UniProt Q39023 1-370)
chain: B2 chain

- binding [4]: binds
B6: MKK5-cYFP (enzyme, UniProt Q8RXG3 1-348)
chain: MKPIQSPSGVASPMKNRLRKRPDLSLPLPHRDVALAVPLPLPPPSSSSSAPASSSAISTNISAAKSLSELERVNRIGSGAGGTVYKVIHTPTSRPFALKVIYGNHEDTVRRQICREIEILRSVDHPNVVKCHDMFDHNGEIQVLLEFMDQGSLEGAHIWQEQELADLSRQILSGLAYLHRRHIVHRDIKPSNLLINSAKNVKIADFGVSRILAQTMDPCNSSVGTIAYMSPERINTDLNHGRYDGYAGDVWSLGVSILEFYLGRFPFAVSRQGDWASLMCAICMSQPPEAPATASQEFRHFVSCCLQSDPPKRWSAQQLLQHPFILKATGGPNLRQMLPPPRPLPSAS

- binding [3]: binds
- binding [5]: no binding
B7: pGAD-MKK5 (enzyme, UniProt Q8RXG3 1-348)
chain: B6 chain

- binding [3]: no binding
B8: pGAD-MEKK1 (enzyme, UniProt Q39008 1-608)
chain: MDRILARMKKSTGRRGGDKNITPVRRLERRDAARNINYDAASCSSSSAEDLSVSTSSLMTRSLEFPEPTSFRIGGGVGEMDRIYRSLGVSGPDDLAISFDAWEACKKRSSSDVVNRFKSFDLDKVRDQDLSEEGPSGVVVGSDSMNHKVQGQDLSEAGPSGGIVTELSEIGNLITPVDRLVADGVVENRRVMERTPTIVKSKGYLVPNNVVAVGVGVGGGIKGLRPPVLKPPPAMKRPPIDHRGSSWDFLTHFAPSETVKRPSSSSSSSEDGCDEEEGKEEEAEAEEMGARFIQLGDTADETCSFTTNEGDSSSTVSNTSPIYPDGGAIITSWQKGQLLGRGSFGSVYEGISGDGDFFAVKEVSLLDQGSQAQECIQQLEGEIKLLSQLQHQNIVRYRGTAKDGSNLYIFLELVTQGSLLKLYQRYQLRDSVVSLYTRQILDGLKYLHDKGFIHRDIKCANILVDANGAVKLADFGLAKVSKFNDIKSCKGTPFWMAPEVINRKDSDGYGSPADIWSLGCTVLEMCTGQIPYSDLEPVQALFRIGRGTLPEVPDTLSLDARLFILKCLKVNPEERPTAAELLNHPFVRRPLPSVGSGGSGSASPLLRR

- binding [4]: binds
B9: MKK4-cYFP (enzyme, UniProt O80397 1-366)
chain: MRPIQSPPGVSVPVKSRPRRRPDLTLPLPQRDVSLAVPLPLPPTSGGSGGSSGSAPSSGGSASSTNTNSSIEAKNYSDLVRGNRIGSGAGGTVYKVIHRPSSRLYALKVIYGNHEETVRRQICREIEILRDVNHPNVVKCHEMFDQNGEIQVLLEFMDKGSLEGAHVWKEQQLADLSRQILSGLAYLHSRHIVHRDIKPSNLLINSAKNVKIADFGVSRILAQTMDPCNSSVGTIAYMSPERINTDLNQGKYDGYAGDIWSLGVSILEFYLGRFPFPVSRQGDWASLMCAICMSQPPEAPATASPEFRHFISCCLQREPGKRRSAMQLLQHPFILRASPSQNRSPQNLHQLLPPPRPLSSSSSPTT

- binding [3]: binds
- binding [5]: no binding
B10: pGAD-MKK4 (enzyme, UniProt O80397 1-366)
chain: B9 chain

- binding [3]: no binding
B11: pGAD-MKK9 (enzyme, UniProt Q9FX43 1-310)
chain: MALVRERRQLNLRLPLPPISDRRFSTSSSSATTTTVAGCNGISACDLEKLNVLGCGNGGIVYKVRHKTTSEIYALKTVNGDMDPIFTRQLMREMEILRRTDSPYVVKCHGIFEKPVVGEVSILMEYMDGGTLESLRGGVTEQKLAGFAKQILKGLSYLHALKIVHRDIKPANLLLNSKNEVKIADFGVSKILVRSLDSCNSYVGTCAYMSPERFDSESSGGSSDIYAGDIWSFGLMMLELLVGHFPLLPPGQRPDWATLMCAVCFGEPPRAPEGCSEEFRSFVECCLRKDSSKRWTAPQLLAHPFLREDL
